From the supplement of paper PMC12645437, “Orthogonal IMiD-Degron Pairs Induce Selective Protein Degradation in Cells” (ACS Chemical Biology, 2025) come the findings set out here.

Some of the results follow.
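Note: jurkat cells carrying a lentiviral library of mutant zinc finger degrons fused to EGFP plus mCherry, mCherry+ cells FACS sorted, degron abundance counted by next-generation sequencing.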

The target of the assay is no compound (DMSO). The experiment in a line: log2 fold change of degron read counts, EGFP-low vs EGFP+ sorted cells; higher = lower degron-EGFP level without compound (poor expression or instability). The conditions noted are these: compound: DMSO control; 18 h.
For FDCEICGAEFTQKGNLLRHIKL, the “log2 fold change of degron read counts” value was -1.09.

Consider FECPVCGARFTQKGNLLRHIKL, for which the “log2 fold change of degron read counts” value is -0.519.

In the case of FRCNVCGASFTQKGNLLRHIKL, the “log2 fold change of degron read counts” value is -1.05. FQCEICGAEFTQKGNLLRHIKL: the “log2 fold change of degron read counts” value is -1.32. As for FFCPICGRFFTQKGNLLRHIKL, the “log2 fold change of degron read counts” value turned out to be 0.318. The figure for FGCDQCGATFTQKGNLLRHIKL is -2.16. For FACNQCGAAFTQKGNLLRHIKL, the “log2 fold change of degron read counts” value is -1.06.

For the sequence FSCEVCGAIFTQKGNLLRHIKL, the “log2 fold change of degron read counts” value is -1.88. The figure for FVCEVCGADFTQKGNLLRHIKL is -2.64. Consider LKCNQCGFLCTQKGNLLRHIKL, for which the “log2 fold change of degron read counts” value was found to be 0.378. Take FFCEICGREFTQKGNLLRHIKL: the “log2 fold change of degron read counts” value was -1.78. For the sequence FSCPICGRYFTQKGNLLRHIKL, the “log2 fold change of degron read counts” value was 0.411. The figure for FVCNICGAEFTQKGNLLRHIKL is -2.32. Take FMCDICGAIFTQKGNLLRHIKL: the “log2 fold change of degron read counts” value was -0.865.
